Among the data in PubChem BioAssay AID2073 (Sanford-Burnham Center for Chemical Genomics, 2009) are inhibition values, retold here.

Each structure is given as a SMILES string. The list shows a part of the results. These are further read-outs of the screen, such as a control signal, another cell line or another target. No call is given for them.

The experiment has as its target Voltage-dependent N-type calcium channel subunit alpha-1B (Homo sapiens) (UniProt Q00975). Briefly: disruptors of CaV2.2 binding to Mint1 – biochemical, HTRF (AID 2073). The conditions noted are these: HTRF protein-protein interaction, Mint1-CaV2.2; measured here: average of repeat tests; at 20 µM; stronger effect = higher value. A general note: In TR-FRET formats the signal depends on donor and acceptor labels being close together.
UniProt Q00975, sequence (Q00975 whole entry, looked up): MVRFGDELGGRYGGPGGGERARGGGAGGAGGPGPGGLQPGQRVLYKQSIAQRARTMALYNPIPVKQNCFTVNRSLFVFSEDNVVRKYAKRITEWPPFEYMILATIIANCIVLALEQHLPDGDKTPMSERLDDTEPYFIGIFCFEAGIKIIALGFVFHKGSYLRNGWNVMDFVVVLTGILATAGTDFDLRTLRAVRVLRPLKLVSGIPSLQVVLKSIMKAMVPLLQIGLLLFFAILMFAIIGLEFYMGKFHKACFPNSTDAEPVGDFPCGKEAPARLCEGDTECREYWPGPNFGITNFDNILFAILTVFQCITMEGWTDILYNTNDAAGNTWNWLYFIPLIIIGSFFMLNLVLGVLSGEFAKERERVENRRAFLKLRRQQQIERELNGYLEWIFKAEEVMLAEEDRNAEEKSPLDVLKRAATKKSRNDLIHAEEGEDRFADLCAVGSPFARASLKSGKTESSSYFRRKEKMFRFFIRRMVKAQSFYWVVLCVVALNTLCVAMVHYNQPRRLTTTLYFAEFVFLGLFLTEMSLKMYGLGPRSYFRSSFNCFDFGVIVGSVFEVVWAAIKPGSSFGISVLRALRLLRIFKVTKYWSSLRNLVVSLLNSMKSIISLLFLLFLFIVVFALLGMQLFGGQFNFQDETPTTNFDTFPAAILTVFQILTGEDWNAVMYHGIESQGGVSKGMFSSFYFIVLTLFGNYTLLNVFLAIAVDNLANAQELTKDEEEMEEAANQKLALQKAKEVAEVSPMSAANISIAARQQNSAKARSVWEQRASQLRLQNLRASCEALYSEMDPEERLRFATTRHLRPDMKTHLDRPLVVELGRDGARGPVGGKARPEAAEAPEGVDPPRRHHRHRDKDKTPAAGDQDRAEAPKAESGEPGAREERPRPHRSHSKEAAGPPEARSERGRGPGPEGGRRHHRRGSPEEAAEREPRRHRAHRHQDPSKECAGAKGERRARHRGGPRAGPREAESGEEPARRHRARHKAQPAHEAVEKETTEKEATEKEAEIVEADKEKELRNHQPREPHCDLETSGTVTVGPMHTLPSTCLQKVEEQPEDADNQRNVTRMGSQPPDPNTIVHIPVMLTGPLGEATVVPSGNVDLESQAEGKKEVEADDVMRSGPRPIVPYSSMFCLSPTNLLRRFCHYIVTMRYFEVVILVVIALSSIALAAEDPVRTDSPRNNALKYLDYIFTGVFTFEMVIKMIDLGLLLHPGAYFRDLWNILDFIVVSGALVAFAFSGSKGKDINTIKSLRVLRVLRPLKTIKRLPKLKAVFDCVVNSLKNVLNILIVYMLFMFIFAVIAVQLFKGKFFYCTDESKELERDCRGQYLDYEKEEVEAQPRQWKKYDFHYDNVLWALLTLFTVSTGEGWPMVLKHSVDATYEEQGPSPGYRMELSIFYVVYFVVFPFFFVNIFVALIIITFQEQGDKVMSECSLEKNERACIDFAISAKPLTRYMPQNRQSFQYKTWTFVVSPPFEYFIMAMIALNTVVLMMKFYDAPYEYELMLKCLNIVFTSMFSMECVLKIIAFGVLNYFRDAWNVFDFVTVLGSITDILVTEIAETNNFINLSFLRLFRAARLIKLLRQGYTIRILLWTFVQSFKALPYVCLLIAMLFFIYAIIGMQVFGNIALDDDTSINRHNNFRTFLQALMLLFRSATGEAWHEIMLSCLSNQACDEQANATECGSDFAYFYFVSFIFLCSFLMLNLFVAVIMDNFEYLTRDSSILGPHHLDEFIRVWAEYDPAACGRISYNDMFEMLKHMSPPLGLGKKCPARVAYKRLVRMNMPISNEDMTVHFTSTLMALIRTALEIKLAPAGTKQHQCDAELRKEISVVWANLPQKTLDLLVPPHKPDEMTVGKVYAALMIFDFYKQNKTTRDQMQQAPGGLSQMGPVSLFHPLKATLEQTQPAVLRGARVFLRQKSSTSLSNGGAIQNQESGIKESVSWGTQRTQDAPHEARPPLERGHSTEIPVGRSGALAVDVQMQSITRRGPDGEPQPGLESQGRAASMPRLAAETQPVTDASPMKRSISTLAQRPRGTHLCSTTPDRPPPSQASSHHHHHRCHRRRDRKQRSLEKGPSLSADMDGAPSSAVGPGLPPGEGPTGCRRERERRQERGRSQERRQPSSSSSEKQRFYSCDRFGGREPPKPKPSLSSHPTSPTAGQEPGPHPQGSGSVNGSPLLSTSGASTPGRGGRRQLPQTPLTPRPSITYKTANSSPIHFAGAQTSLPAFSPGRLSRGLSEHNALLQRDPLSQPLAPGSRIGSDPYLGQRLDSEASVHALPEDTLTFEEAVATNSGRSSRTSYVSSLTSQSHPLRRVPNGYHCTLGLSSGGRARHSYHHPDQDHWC
Regarding `Clc1nssc1=Nc1ccc(Br)cc1`, the inhibition (commonly the change of the read-out against control, counted positive when it falls) was 79.3%.

As for `CC(=O)Oc1ccc(/C=N\NC(=O)c2cc3c(ccc4ccccc43)o2)cc1`, the inhibition was found to be 43.8%.

`Nc1c(C(=O)NC2CC2)sc2nc3c(c(-c4ccco4)c12)CC/C3=C/c1ccco1`: the inhibition worked out at 49.9%.

For `CCOc1ccc(N2CSC3=C(C#N)C(c4ccco4)CC(=O)N3C2)cc1` (configuration not stated), the inhibition turned out to be 70.1%.

As for `N#C/C(=C\c1ccc(OCCN2CCOCC2)cc1)C(=O)Nc1ccc(S(N)(=O)=O)cc1`, the inhibition amounted to 68.9%.

For the compound `O=C(CN1C(=O)/C(=C\c2cccc(Br)c2)Oc2ccccc21)NCC1CCCO1` (configuration not stated), the inhibition was found to be 46.7%.

In the case of `COCCNC(=O)/C(C#N)=C/c1cccc(/C=C(\C#N)C(=O)NCCOC)c1`, the inhibition came out at 54%.

On to `O=C(CSc1ccc(Cl)cc1)Nc1cccc(-c2nc3ccccc3[nH]2)c1`, for which the inhibition came out at 49.7%.

With `O=C(N/N=C/c1ccncc1)c1ccc(NC(=O)c2ccc(Cl)cc2)cc1`, the inhibition is 68.9%.

`CCCCCCc1cc2cc(-c3nnc(-c4ccccc4OC)o3)c(=O)oc2cc1O`: the inhibition is 77.5%.

On to `N#Cc1cccc(N=c2ssnc2Cl)c1`, for which the inhibition came out at 66.4%.

As for `O=C(CNC(=O)/C=C/c1ccco1)N=Nc1c(O)[nH]c2ccccc12`, the inhibition stood at 50.6%.

As for `Cc1cc(C)nc(/N=c2/ssnc2Cl)c1`, the inhibition is 60.1%.

For `COC(=O)c1ccc(/C=C2/SC(=S)N(CCCC(=O)Nc3ccc(O)cc3)C2=O)cc1`, the inhibition is 57.2%.

`ClC(Cl)(c1nnnn1-c1ccccc1)c1nnnn1-c1ccccc1`: the inhibition turned out to be 87.4%.

On to `CC1=C(C)CS(=O)N(S(=O)(=O)c2ccc(Cl)cc2)C1` (configuration not stated), for which the inhibition was 81.3%.

For `O=C(CCN1C(=O)/C(=C/c2ccc(Cl)cc2)SC1=S)NC1C=CS(=O)(=O)C1` (configuration not stated), the inhibition is 85.6%.

With `N=C1/C(=C/c2ccc(-c3cccc(C(=O)O)c3)o2)C(=O)N=C2SC=C(c3ccccc3)N12`, the inhibition turned out to be 87.8%.

For `COc1ccc(-n2cccc2/C=C2\C(=N)N3N=C(c4ccco4)SC3=NC2=O)cc1`, the inhibition turned out to be 71.2%.

Turning to `Cc1ccc(-n2nnnc2C(Cl)(Cl)c2nnnn2-c2ccc(C)cc2)cc1`, the inhibition is 81.8%.

Consider `Cc1cccnc1NC(=S)Nc1ccc(F)cc1F`, for which the inhibition was determined as 68.6%.

`CCc1ccc(-n2cccc2/C=C2/C(=N)N3C(=NC2=O)SN=C3S(C)(=O)=O)cc1`: the inhibition was 40.9%.

For the compound `Cc1ccc(Cn2c(C(C)Nc3nc(-c4ccc(C)cc4)cs3)nc3cc(Cl)c(Cl)cc32)cc1` (configuration not stated), the inhibition was determined as 77.2%.

For `Cc1cc2nn(-c3cccc4ccccc34)nc2cc1N`, the inhibition worked out at 53.3%.

As to `O=C(Nc1nc2ccsc2c(=O)s1)c1ccco1`, the inhibition stood at 56.4%.

Regarding `Nc1ccc2nn(-c3cccc4ccccc34)nc2c1`, the inhibition was 60.5%.

As for `CC(C)NC(=O)COC(=O)/C=C/c1ccco1`, the inhibition came to 23%.

Take `O=C(N/N=C/c1cc(Cl)c(O)c(Cl)c1)c1cc2c(ccc3ccccc32)o1`: the inhibition is 61.4%.

With `Cc1ccc(NN2C(=O)C=C(c3ccc(Cl)cc3)C2=O)cc1`, the inhibition was determined as 56.2%.

As for `O=C(CCN1C(=O)/C(=C/c2ccccc2F)SC1=S)NC1C=CS(=O)(=O)C1` (configuration not stated), the inhibition was determined as 85.3%.

In the case of `Cc1ccc(N2CSC3=C(C#N)C(c4cccs4)CC(=O)N3C2)cc1` (configuration not stated), the inhibition came to 54.6%.

For `O=C(CN1C(=O)S/C(=C\c2ccc(-c3cc(C(=O)O)ccc3Cl)o2)C1=O)Nc1ccc2c(c1)OCO2`, the inhibition came to 64.7%.

Turning to `CN(CCC#N)C(=O)COC(=O)c1c2c(nc3ccccc13)/C(=C/c1ccco1)CC2`, the inhibition is 51.9%.

Take `O=C(O)COc1ccc(/C=N/NC(=O)c2ccc(-c3csc(Nc4ccc(Cl)cc4)n3)cc2)cc1`: the inhibition stood at 75%.

Regarding `Cc1cc(C)nc(NC(=S)Nc2ccc(Br)cc2Cl)c1`, the inhibition was 70.2%.

`O=C(CCS(=O)(=O)c1ccc(Br)cc1)NCc1ccco1`: the inhibition came out at 66.3%.

For the compound `O=C(CCN1C(=O)/C(=C/c2ccccc2Cl)SC1=S)NC1C=CS(=O)(=O)C1` (configuration not stated), the inhibition worked out at 63.6%.

`CC(/C=C/c1ccco1)=N/NC(=O)Cc1cccs1`: the inhibition amounted to 44.6%.

As for `COc1ccc2cc3c(N)nn(C(=O)c4ccc(Cl)c([N+](=O)[O-])c4)c3nc2c1`, the inhibition is 45.6%.

Consider `COc1cc(NC(=O)c2cccc(F)c2)ccc1NC(=O)c1cc2ccccc2o1`, for which the inhibition turned out to be 48.1%.

Take `Cn1cc(Cl)c(C(=O)Nc2nc3ccc([N+](=O)[O-])cc3s2)n1`: the inhibition turned out to be 39.7%.

Take `C=C(C)C(=O)Nc1cccc(C2=NOC3(C2)C[C@@H](C(N)=O)N(C(=O)CCCCC)C3)c1` (some centres not stated): the inhibition was 71.1%.

For the compound `CCOC(=O)C1=C(C)N=c2s/c(=C/c3ccc(OCC(=O)O)cc3)c(=O)n2C1c1ccc(SC)cc1` (configuration not stated), the inhibition was 92.4%.

Consider `COc1cc(-c2ccc(Nc3ccccc3C(=O)O)c(OC)c2)ccc1Nc1ccccc1C(=O)O`, for which the inhibition turned out to be 65.3%.

For `COc1cc(OC)c2c(O)c3c(c(-c4c5c(c(O)c6c(OC)cc(OC)cc46)CO[C@@H](C)[C@H]5O)c2c1)[C@H](O)[C@H](C)OC3`, the inhibition was determined as 72.6%.

With `COCCn1c(SCC(=O)Nc2ccc(C(N)=O)cc2)nc2c([nH]c3ccccc32)c1=O`, the inhibition came out at 56.5%.

As to `COc1ccc(N2C(=O)CC(Sc3nnnn3-c3ccc(F)cc3)C2=O)cc1` (configuration not stated), the inhibition came out at 58.4%.

With `CCOC(=O)c1c2ccc(OCC(=O)NN)cc2n2ccccc12`, the inhibition came to 45%.

On to `Cc1cccc(-n2cnc3c(c2=O)c2nc4ccccc4nc2n3Cc2ccco2)c1`, for which the inhibition amounted to 40%.

Consider `COc1cc(NC(=O)c2ccccc2)ccc1NC(=O)c1cc2ccccc2o1`, for which the inhibition was found to be 65.6%.

As for `CCOc1ccc(/C=C2/SC(=S)N(CCC(=O)Nc3ccc(C(=O)O)cc3)C2=O)cc1`, the inhibition was 85.6%.

Regarding `CCOC(=O)C1=C(C)N=c2s/c(=C\c3ccc(OCC(=O)O)cc3)c(=O)n2C1c1ccc(Cl)cc1` (configuration not stated), the inhibition turned out to be 92.2%.

As to `CCOC(=O)Cc1csc(-n2sc3ccccc3c2=O)n1`, the inhibition was 72%.

Take `N#CC1=C(N)NC(=S)C(C(N)=O)C1c1ccc([N+](=O)[O-])cc1` (configuration not stated): the inhibition was found to be 87.3%.

As for `CC(=O)Nc1ccc(OC(=O)c2cc3cc(Br)ccc3oc2=O)cc1`, the inhibition was 49.2%.

In the case of `COc1ccc([C@@H]2CC(=O)c3c(O)cc(O[C@@H]4O[C@H](CO[C@@H]5O[C@@H](C)[C@H](O)[C@@H](O)[C@H]5O)[C@@H](O)[C@H](O)[C@H]4O)cc3O2)cc1O`, the inhibition amounted to 68.5%.

For `Cc1ccc(-c2cc(C(=O)NCCN3CCOCC3)c3ccccc3n2)o1`, the inhibition was found to be 58.7%.

Take `O=C(O)CCc1ccc(-c2cccs2)o1`: the inhibition is 49.8%.

Take `O=C(/C=C/c1ccc([N+](=O)[O-])cc1)N(c1ccccn1)C1CCCCC1`: the inhibition came to 54.7%.

On to `O=C(O)C1Nc2c(O)cccc2C2C=CCC12` (configuration not stated), for which the inhibition came out at 79.4%.

`[N-]=C=C1C(=S)NC(=O)[C@H]([n+]2ccccc2)[C@H]1c1ccc(Cl)cc1`: the inhibition came out at 54.5%.

`Cc1cc(C)c2c(=O)n(CC(=O)NCCCN3CCOCC3)sc2n1`: the inhibition worked out at 94.2%.
